Assay results published in PubChem BioAssay AID485344 (National Center for Advancing Translational Sciences (NCATS), 2010).
Among all 340,000 compounds or so, about 6,900 (2%) were called active. Cut-off read from the data, not from the text of the source: active = inhibition above about 30%; inactive = below that, where a call was filed. The list shows a part of the results, in another mix than the full data. Entries without a call were filed so in the source.

What follows are compounds tested against D(2) dopamine receptor (Homo sapiens) (UniProt P14416) (assay: HTS Assay for Allosteric Antagonists of the Human D2 Dopamine Receptor: Primary Screen for Antagonists). Settings: HEK293 TREx D2 cells, calcium flux, dopamine EC80; at 10 µM; stronger effect = higher value.
How it was run: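 Calcium mobilization kinetics were recorded at 1 s intervals in tetracycline-induced HEK293 T-REx D2 cells, first for 180 s after compound addition and then 180 s after EC80 dopamine.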
Note: 0% is about no effect.

Chain of UniProt P14416 (P14416 whole entry, looked up): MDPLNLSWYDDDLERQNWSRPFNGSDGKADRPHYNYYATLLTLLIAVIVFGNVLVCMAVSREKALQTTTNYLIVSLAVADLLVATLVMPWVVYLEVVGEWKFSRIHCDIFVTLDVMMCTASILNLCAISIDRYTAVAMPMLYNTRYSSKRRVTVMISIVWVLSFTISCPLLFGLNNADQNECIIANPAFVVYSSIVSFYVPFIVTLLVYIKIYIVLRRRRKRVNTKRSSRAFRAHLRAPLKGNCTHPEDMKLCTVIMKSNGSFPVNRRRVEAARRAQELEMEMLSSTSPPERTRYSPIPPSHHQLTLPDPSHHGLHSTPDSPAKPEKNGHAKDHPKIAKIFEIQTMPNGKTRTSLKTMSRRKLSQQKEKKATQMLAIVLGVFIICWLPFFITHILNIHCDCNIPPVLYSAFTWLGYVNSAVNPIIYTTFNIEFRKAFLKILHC

Compound	inhibition
CCCCn1nnc(NC(=O)c2ccc(-c3ccccc3[N+](=O)[O-])o2)n1	active: 51.7%
COc1cccc(N2CCN(C(=O)CCS(=O)(=O)c3ccc4c(c3)oc(=O)n4C)CC2)c1	1.39%
COCCCNC(=O)C1CCN(c2nc3ccc(C)cc3[nH]2)CC1	-5.53%
Cc1ccc(S(=O)(=O)N2CCC(C(=O)Nc3ccc(C)c(Cl)c3)CC2)cc1	1.58%
O=C1c2[nH]nc(-c3ccccc3O)c2C(c2cccc(OCc3ccccc3)c2)N1CCO (centres undefined)	-10.6%
CN(CCNC(=O)CCCOc1cc(=O)n(C)c2ccccc12)Cc1ccccc1	active: 47.3%
COc1ccc(CCNC(=O)C(=O)NCC(c2cccs2)S(=O)(=O)c2ccc(C)cc2)cc1 (centres undefined)	-27.3%
CCN(CC)C(=O)Cn1c(=O)n(-c2ccc(Cl)cc2)c(=O)c2c3c(sc21)CCC3	18.5%
CCOC(=O)c1c(C)[nH]c(C)c1S(=O)(=O)N1CCN(c2cccc(C(F)(F)F)c2)CC1	0.459%
COc1ccc(C(=O)COC(=O)C(Cc2c[nH]c3ccccc23)NC(=O)c2ccc(C(C)(C)C)cc2)cc1 (centres undefined)	-2.35%
Cc1ccc(CCNC(=O)c2ccc3c(c2)N(Cc2cccc(Cl)c2)C(=O)c2ccccc2S3(=O)=O)cc1	13.8%
Cc1cc(C)cc(OC(C)C(=O)Nc2c(C(=O)c3ccccc3)oc3ccccc23)c1 (centres undefined)	0.212%
O=C(Nc1cccc(C(F)(F)F)c1)C1CCCN1S(=O)(=O)c1cccc2nsnc12 (centres undefined)	10.6%
c1ccc(CSc2nc3ncccc3[nH]2)cc1	10.9%
CCCN(CCC)S(=O)(=O)c1ccc(C(=O)Nc2sc3c(c2C(=O)OC)CCN(CC)C3)cc1	-7.51%
Cc1ccc(CO/N=C\Cc2snc(Sc3ncc(C(F)(F)F)cc3Cl)c2C#N)cc1	active: 33.5%
CSc1ccc(C2c3c(oc4cc(C)cc(C)c4c3=O)C(=O)N2Cc2ccco2)cc1 (centres undefined)	14.7%
COc1ccc(OC)c(NS(=O)(=O)c2ccc(-c3cc(C)no3)s2)c1	1.22%
Cc1cccc(C(=O)Nc2nnc(S(=O)(=O)N(C)c3ccccc3C)s2)c1	-1.46%
Cc1ccc(-n2c(-c3ccco3)nc3c(cnn3-c3ccccc3Cl)c2=O)cc1	18.1%
CC(C)c1cnc2c(c1SCC(=O)Nc1cccc(F)c1)c(=O)n(C)c(=O)n2C	-1.84%
Cc1ccc(Cl)cc1Nc1nn2c(=O)c3ccc(C(=O)N4CCCC(C)C4)cc3nc2s1 (centres undefined)	2.51%
CCn1cc2nc(SCc3cccc(Cl)c3)n(Cc3ccc(C)cc3)c(=O)c2n1	-22.4%
O=C(Nc1cccc(F)c1)C1CCN(S(=O)(=O)c2cccc3nsnc23)CC1	-2.49%

Compound	inhibition
COc1ccc(CCNS(=O)(=O)c2cc(-c3cc(C)no3)ccc2C)cc1OC	-3.11%
CN(C)c1ccc(CNC(=O)CCn2cccn2)cc1	17.8%
CCc1ccc(CN2CCc3nc(N4CCN(CC)CC4)ncc3C2)cc1	8.54%
CCc1cccc(CN2CCC(CNC(=O)Nc3ccc(Cl)cc3)CC2)c1	active: 35.5%
Cc1oc2ncnc(N3CCCCC3)c2c1C(=O)N1CCN(c2cccc(Cl)c2)CC1	-6.12%
CCCN1C(=O)C2(c3ccccc31)c1c(oc3ccc(F)cc3c1=O)C(=O)N2CCCOC(C)C (centres undefined)	8.3%
CN(C(=O)CSc1nnc(-c2ccccc2F)o1)C1CCCCC1	-6.67%
c1coc(-c2nc3n(n2)C2(CCCCC2)[C@@H]2CCCC[C@@H]2N3)c1	20.8%
COc1cc(NC(=O)CCc2c(C)nc3cc(-c4ccccc4)nn3c2C)cc(OC)c1OC	4.46%
CCOc1ccc(CN(C(=O)c2cc(=O)c3cc(C)cc(C)c3o2)C2CCS(=O)(=O)C2)cc1 (centres undefined)	4.13%
Cc1ccc2c(c1)c(=O)c(C(=O)c1ccc3c(c1)OCO3)cn2Cc1ccc(Cl)cc1	-25.1%
CSc1ccc(/C=C/c2nc3ccccc3n2S(=O)(=O)c2cccc(Cl)c2)cc1	-4.01%
CCC(CC)C(=O)Nc1nnc(SCc2cc(=O)n3cccc(C)c3n2)s1	7.38%
CCOc1ccc(CN2C(=O)c3ccccc3Sc3ccc(C(=O)O)cc32)cc1	-13.3%
O=C(NCCc1ccc(Cl)cc1)C(=O)NCC(c1ccco1)S(=O)(=O)c1ccc(Cl)cc1 (centres undefined)	-25.2%
Cc1ccc(C(=O)OC2CCOC2=O)cc1NC(=O)c1ccco1 (centres undefined)	active: 35.4%
CCCN1CCN(C(=O)CCc2nnc3ccc(N4CCN(c5cccc(OC)c5)CC4)nn23)CC1	active: 31.8%
Clc1ccc(CN2CCC(c3ccccc3)CC2)cc1	active: 84.7%
Cc1ccc(Cl)cc1NC(=O)c1oc2ccc(S(=O)(=O)N(C)C3CCCCC3)cc2c1C	18.1%
CC(=O)CSc1nnc2cc(C)c3cc(C)cc(C)c3n12	-3.68%
CCc1nonc1NC(=O)c1oc2ccc(Br)cc2c1C	-11.6%
Nc1nc(CN2CCN(c3ccccn3)CC2)nc(Nc2ccc(F)cc2)n1	active: 73.2%
CC1(C)OC(=O)N2CCc3ccccc3C21C (centres undefined)	active: 40.5%
CCc1ccc(-n2c(=O)c3c4c(sc3n(CC(=O)N3CCC(C)CC3)c2=O)CCC4)cc1	-5.63%

Compound	inhibition
Cc1ccc(NC(=O)C2CCCN(S(=O)(=O)c3cccc4cccnc34)C2)cc1 (centres undefined)	25.3%
Cc1ccc(Cl)cc1NC(=O)c1oc2ccc(S(=O)(=O)N3CCCCC3)cc2c1C	16.8%
COc1ccc(OCc2ccc(-c3nc(C#N)c(NC(C)c4ccccc4)o3)o2)cc1 (centres undefined)	11.3%
CCOc1ccc2nc(N3CCCC(C(=O)NCCc4ccc(OCC)c(OCC)c4)C3)sc2c1 (centres undefined)	8.27%
Cc1cccc(C)c1Nc1c(-c2ccccn2)nc2c(C)cccn12	1.98%
Cc1nn(CC(=O)Nc2ccc(OC(F)(F)F)cc2)c(=O)c2c(C)n(-c3ccc(Cl)cc3)nc12	19.2%
COc1ccc(CCNC(=O)c2nc(-c3ccc(Cl)cc3)n3c2CCCCC3)c(OC)c1	7.23%
COC(=O)c1ccccc1NC(=O)C1=CC(c2cccs2)=NS(=O)(=O)N1C	-12.8%
Cc1cc(OCC(=O)Nc2cc(-c3nc4ncccc4o3)ccc2C)ccc1Cl	13.6%
COc1ccc(-n2nc3cc(C)c(NC(=O)c4ccc(-c5ccc(Cl)cc5)o4)cc3n2)cc1	-6.37%
Cc1ccc(S(=O)(=O)c2nnn(-c3ccc(F)c(Cl)c3)c2N)cc1	15.2%
CCc1ccc(S(=O)(=O)Nc2ccc3c(c2)n(C)c(=O)c(=O)n3C)cc1	-12%
CCC(=O)N1CCc2cc(Br)cc(S(=O)(=O)CCC(=O)N3CCN(c4cccc(C)c4)C(C)C3)c21 (centres undefined)	-2.49%
Cc1ccc2c(c1)C(c1ccc(F)cc1)N(C(=O)c1ccc(S(=O)(=O)N3CCCCC3)cc1)CC(=O)N2 (centres undefined)	-9.16%
COc1ccc(C(=O)Nc2ccc3nc(SCC(=O)N4CCc5ccccc54)sc3c2)cc1	19.1%
COc1ccc(NC(=O)CCNS(=O)(=O)c2ccc3c(c2)CCCC(=O)N3)cc1Cl	-1.56%
O=C(NCc1ccc(Cl)cc1)NCc1noc2ccccc12	23.9%
Cc1cc(C)c2sc(NNC(=O)C3COc4ccccc4O3)nc2c1 (centres undefined)	active: 32.5%
O=C(Cc1cccs1)NC1CC(=O)N(c2ccc(F)cc2)C1 (centres undefined)	-6.97%
Cc1oc(-c2ccc(C(=O)NCc3ccccc3)cc2)nc1CN1CCc2ccccc21	0.18%
COc1ccc(-c2nc3ccccc3s2)cc1NC(=O)c1ccccc1F	-3.31%
CCOCCCNC(=O)c1ccc(-n2c(-c3ccccc3)cc3c2CCC(C)C3)cc1 (centres undefined)	-7.21%
COc1ccc2c(c1)cc1c(=O)n(CC(=O)NC(C)CCc3ccccc3)nc(C)n12 (centres undefined)	15.8%
Cc1ccc(-c2ccc(=O)n(CC(=O)NCCc3ccccc3)n2)cc1	-4.04%

Compound	inhibition
O=S(=O)(NCCc1csc2nc(-c3ccccc3)nn12)c1cc(F)ccc1F	-15.6%
Cc1ccc(-n2ncc3c(Nc4cccc(C(=O)O)c4)ncnc32)cc1	-7.87%
Cc1ccc(NC(=O)C(=O)NCC(c2cccnc2)N2CCN(Cc3ccccc3)CC2)cc1F (centres undefined)	9.23%
Cc1cccc(/C=C/c2onc(C)c2S(=O)(=O)N2CCC(C(=O)N3CCCCC3)CC2)c1	-9.81%
COc1ccc(-c2[nH]c(-c3ccc(Cl)cc3)nc2SCC(=O)NCC2CCCO2)cc1 (centres undefined)	26%
CCCCn1cnc2cc(NCc3ccccc3Cl)ccc21	28.3%
CCCSCCCNC(=O)C1CCN(c2nc3ccccc3nc2C(F)(F)F)CC1	-10.3%
CC(=O)N1CCCc2cc(S(=O)(=O)N3CCCC(C(=O)N4CCN(c5ccccc5)CC4)C3)ccc21 (centres undefined)	-5.13%
Cc1ccc(S(=O)(=O)n2nc(-c3ccc(Cl)cc3)nc2NCc2ccc(F)cc2)cc1	7.54%
COc1ccc(CNC(=O)c2cc3cc(OC)ccc3oc2=O)cc1	19.8%
Cc1cc(C)c2c(CC(=O)Nc3ccc(S(=O)(=O)Nc4nc(C)cc(C)n4)cc3)coc2c1	-19.3%
CCOc1ccc(NC(=O)Cn2c(=O)n(CCCCCC(=O)NCc3ccccc3)c(=O)c3sccc32)cc1	8.42%
CCc1ccc2occ(CC(=O)Nc3c(C(=O)c4ccc(C)cc4)oc4ccccc34)c2c1	-7.55%
COc1ccc(S(=O)(=O)Nc2c(C)nc3nc[nH]n3c2=O)cc1	22.8%
Cc1ccc2c(CNCc3ccc(C)o3)c(C(=O)O)n(Cc3ccccc3C)c2c1	8.75%
CCc1ccccc1NS(=O)(=O)c1ccc2[nH]cc(C(=O)N(CC)Cc3ccccc3)c(=O)c2c1	9.82%
CCCc1ccc(OCC(=O)Nc2sc(C(=O)OCC)c(C)c2C(=O)OCC)cc1	11.6%
CSc1ncc(C(=O)NCc2ccccc2F)c(-c2ccccc2)n1	3.18%
Cc1ccc(C)c(N2CCN(S(=O)(=O)c3ccc4c(c3)C(C(C)C)C(=O)N4)CC2)c1 (centres undefined)	-0.456%
C=CCc1ccc(OCCCNCc2ccccc2)c(OC)c1	active: 62.2%
CC(C)C1Oc2ccccc2N(CC(=O)N2CCOCC2)C1=O (centres undefined)	active: 37.9%
CCOC(=O)c1ccc(CN(Cc2ccc(F)cc2)S(=O)(=O)c2ccc(F)c(C(=O)Nc3c(C)cccc3C)c2)cc1	10.2%
